Assay results reported in the supplement of paper PMC8728848.
The list shows a part of the results.

Tests used:
Test in all cases: glycan array binding signal (z-score within array); higher = stronger binding
Conditions in all cases: glycan notation: IUPAC condensed, linker removed
[1] = target: Man(a1-3)[Man(a1-6)]Man(a1-6)[Man(a1-3)]Man
Outline: (§1)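 Columns mapping to the same glycan were averaged after glycan names were converted to IUPAC-condensed notation. The data come from 3228 arrays in the Consortium for Functional Glycomics database, limited to those with an available protein sequence. Binding is reported as a within-array Z-score averaged across arrays of one protein sequence and across linkers.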

[2] = target: Man(a1-3)[Man(a1-6)]Man(a1-6)[Man(a1-3)]Man(b1-4)GlcNAc(b1-4)GlcNAc
Outline: as §1

[3] = target: Man(a1-3)[Man(a1-6)]Man(b1-4)GlcNAc(b1-4)GlcNAc
Outline: as §1

Man(a1-6)Man = target: Man(a1-6)Man
Outline: as §1

Man(b1-4)GlcNAc = target: Man(b1-4)GlcNAc
Outline: as §1

Neu5Ac(a2-3)Gal = target: Neu5Ac(a2-3)Gal
Outline: as §1

[4] = target: Neu5Ac(a2-3)Gal(b1-3)GalNAc
Outline: as §1

[5] = target: Neu5Ac(a2-3)Gal(b1-3)GalNAc(b1-3)Gal(a1-4)Gal(b1-4)Glc
Outline: as §1

[6] = target: Neu5Ac(a2-3)Gal(b1-3)GalNAc(b1-3)Gal(b1-4)GlcNAc
Outline: as §1

[7] = target: Neu5Ac(a2-3)Gal(b1-3)GalNAc(b1-4)[Neu5Ac(a2-3)]Gal(b1-4)Glc
Outline: as §1

[8] = target: Neu5Ac(a2-3)Gal(b1-3)GalNAc6S
Outline: as §1

[9] = target: Neu5Ac(a2-3)Gal(b1-3)GlcNAc
Outline: as §1

[10] = target: Neu5Ac(a2-3)Gal(b1-3)GlcNAc(b1-3)Gal(b1-3)GlcNAc
Outline: as §1

[11] = target: Neu5Ac(a2-3)Gal(b1-3)GlcNAc6S
Outline: as §1

[12] = target: Neu5Ac(a2-3)Gal(b1-3)[Fuc(a1-4)]GlcNAc
Outline: as §1

[13] = target: Neu5Ac(a2-3)Gal(b1-3)[Fuc(a1-4)]GlcNAc(b1-3)Gal(b1-4)[Fuc(a1-3)]GlcNAc
Outline: as §1

[14] = target: Neu5Ac(a2-3)Gal(b1-3)[Neu5Ac(a2-3)Gal(b1-4)]GlcNAc
Outline: as §1

[15] = target: Neu5Ac(a2-3)Gal(b1-3)[Neu5Ac(a2-6)]GalNAc
Outline: as §1

Neu5Ac(a2-3)Gal(b1-4)Glc = target: Neu5Ac(a2-3)Gal(b1-4)Glc
Outline: as §1

[16] = target: Neu5Ac(a2-3)Gal(b1-4)GlcNAc
Outline: as §1

[17] = target: Neu5Ac(a2-3)Gal(b1-4)GlcNAc(b1-2)Man(a1-3)[GlcNAc(b1-2)Man(b1-4)GlcNAc(b1-2)Man(a1-6)]Man(b1-4)GlcNAc(b1-4)GlcNAc
Outline: as §1

[18] = target: Neu5Ac(a2-3)Gal(b1-4)GlcNAc(b1-2)Man(a1-3)[Neu5Ac(a2-6)Gal(b1-4)GlcNAc(b1-2)Man(a1-6)]Man(b1-4)GlcNAc(b1-4)GlcNAc
Outline: as §1

[19] = target: Neu5Ac(a2-3)Gal(b1-4)GlcNAc(b1-3)Gal(b1-3)GlcNAc
Outline: as §1

[20] = target: Neu5Ac(a2-3)Gal(b1-4)GlcNAc(b1-3)Gal(b1-4)GlcNAc
Outline: as §1

[21] = target: Neu5Ac(a2-3)Gal(b1-4)GlcNAc(b1-3)Gal(b1-4)GlcNAc(b1-3)Gal(b1-4)GlcNAc
Outline: as §1

[22] = target: Neu5Ac(a2-3)Gal(b1-4)GlcNAc(b1-3)Gal(b1-4)[Fuc(a1-3)]GlcNAc
Outline: as §1

[23] = target: Neu5Ac(a2-3)Gal(b1-4)GlcNAc(b1-6)[Gal(b1-3)]GalNAc
Outline: as §1

[24] = target: Neu5Ac(a2-3)Gal(b1-4)GlcNAc(b1-6)[Neu5Ac(a2-3)Gal(b1-3)]GalNAc
Outline: as §1

[25] = target: Neu5Ac(a2-3)Gal(b1-4)GlcNAc6S
Outline: as §1

[26] = target: Neu5Ac(a2-3)Gal(b1-4)[Fuc(a1-3)]GlcNAc
Outline: as §1

[27] = target: Neu5Ac(a2-3)Gal(b1-4)[Fuc(a1-3)]GlcNAc(b1-3)Gal
Outline: as §1

[28] = target: Neu5Ac(a2-3)Gal(b1-4)[Fuc(a1-3)]GlcNAc(b1-3)Gal(b1-4)GlcNAc
Outline: as §1

[29] = target: Neu5Ac(a2-3)Gal(b1-4)[Fuc(a1-3)]GlcNAc(b1-3)Gal(b1-4)[Fuc(a1-3)]GlcNAc(b1-3)Gal(b1-4)[Fuc(a1-3)]GlcNAc
Outline: as §1

[30] = target: Neu5Ac(a2-3)Gal(b1-4)[Fuc(a1-3)]GlcNAc(b1-6)[Gal(b1-3)]GalNAc
Outline: as §1

[31] = target: Neu5Ac(a2-3)Gal(b1-4)[Fuc(a1-3)]GlcNAc6S
Outline: as §1

[32] = target: Neu5Ac(a2-3)Gal6S(b1-4)GlcNAc
Outline: as §1

[33] = target: Neu5Ac(a2-3)Gal6S(b1-4)[Fuc(a1-3)]GlcNAc
Outline: as §1

Neu5Ac(a2-3)GalNAc = target: Neu5Ac(a2-3)GalNAc
Outline: as §1

[34] = target: Neu5Ac(a2-3)GalNAc(b1-4)GlcNAc
Outline: as §1

[35] = target: Neu5Ac(a2-3)[GalNAc(b1-4)]Gal(b1-4)Glc
Outline: as §1

[36] = target: Neu5Ac(a2-3)[GalNAc(b1-4)]Gal(b1-4)GlcNAc
Outline: as §1

[37] = target: Neu5Ac(a2-3)[Neu5Ac(a2-6)]GalNAc
Outline: as §1

Neu5Ac(a2-6)Gal = target: Neu5Ac(a2-6)Gal
Outline: as §1

Neu5Ac(a2-6)Gal(b1-4)Glc = target: Neu5Ac(a2-6)Gal(b1-4)Glc
Outline: as §1

[38] = target: Neu5Ac(a2-6)Gal(b1-4)GlcNAc
Outline: as §1

B1: Factor H (Homo sapiens), P08603 (protein)
chain: MRLLAKIICLMLWAICVAEDCNELPPRRNTEILTGSWSDQTYPEGTQAIYKCRPGYRSLGNVIMVCRKGEWVALNPLRKCQKRPCGHPGDTPFGTFTLTGGNVFEYGVKAVYTCNEGYQLLGEINYRECDTDGWTNDIPICEVVKCLPVTAPENGKIVSSAMEPDREYHFGQAVRFVCNSGYKIEGDEEMHCSDDGFWSKEKPKCVEISCKSPDVINGSPISQKIIYKENERFQYKCNMGYEYSERGDAVCTESGWRPLPSCEEKSCDNPYIPNGDYSPLRIKHRTGDEITYQCRNGFYPATRGNTAKCTSTGWIPAPRCTLKPCDYPDIKHGGLYHENMRRPYFPVAVGKYYSYYCDEHFETPSGSYWDHIHCTQDGWSPAVPCLRKCYFPYLENGYNQNYGRKFVQGKSIDVACHPGYALPKAQTTVTCMENGWSPTPRCIRVKTCSKSSIDIENGFISESQYTYALKEKAKYQCKLGYVTADGETSGSITCGKDGWSAQPTCIKSCDIPVFMNARTKNDFTWFKLNDTLDYECHDGYESNTGSTTGSIVCGYNGWSDLPICYERECELPKIDVHLVPDRKKDQYKVGEVLKFSCKPGFTIVGPNSVQCYHFGLSPDLPICKEQVQSCGPPPELLNGNVKEKTKEEYGHSEVVEYYCNPRFLMKGPNKIQCVDGEWTTLPVCIVEESTCGDIPELEHGWAQLSSPPYYYGDSVEFNCSESFTMIGHRSITCIHGVWTQLPQCVAIDKLKKCKSSNLIILEEHLKNKKEFDHNSNIRYRCRGKEGWIHTVCINGRWDPEVNCSMAQIQLCPPPPQIPNSHNMTTTLNYRDGEKVSVLCQENYLIQEGEEITCKDGRWQSIPLCVEKIPCSQPPQIEHGTINSSRSSQESYAHGTKLSYTCEGGFRISEENETTCYMGKWSSPPQCEGLPCKSPPEISHGVVAHMSDSYQYGEEVTYKCFEGFGIDGPAIAKCLGEKWSHPPSCIKTDCLSLPSFENAIPMGEKKDVYKAGEQVTYTCATYYKMDGASNVTCINSRWTGRPTCRDTSCVNPPTVQNAYIVSRQMSKYPSGERVRYQCRSPYEMFGDEEVMCLNGNWTEPPQCKDSTGKCGPPPPIDNGDITSFPLSVYAPASSVEYQCQNLYQLEGNKRITCRNGQWSEPPKCLHPCVISREIMENYNIALRWTAKQKLYSRTGESVEFVCKRGYRLSSRSHTLRTTCWDGKLEYPTCAKR
glycan array binding signal (z-score) [1]: -0.337
glycan array binding signal (z-score) [2]: -0.43
glycan array binding signal (z-score) [3]: -0.709
glycan array binding signal (z-score) (Man(a1-6)Man): -0.725
glycan array binding signal (z-score) (Man(b1-4)GlcNAc): -0.282
glycan array binding signal (z-score) (Neu5Ac(a2-3)Gal): -0.391
glycan array binding signal (z-score) [4]: -0.51
glycan array binding signal (z-score) [5]: -0.396
glycan array binding signal (z-score) [6]: -0.594
glycan array binding signal (z-score) [7]: -0.517
glycan array binding signal (z-score) [8]: -0.221
glycan array binding signal (z-score) [9]: -0.494
glycan array binding signal (z-score) [10]: 0.292
glycan array binding signal (z-score) [11]: -0.109
glycan array binding signal (z-score) [12]: -0.088
glycan array binding signal (z-score) [13]: 0.104
glycan array binding signal (z-score) [14]: -0.225
glycan array binding signal (z-score) [15]: -0.053
glycan array binding signal (z-score) (Neu5Ac(a2-3)Gal(b1-4)Glc): -0.326
glycan array binding signal (z-score) [16]: 0.284
glycan array binding signal (z-score) [17]: -0.674
glycan array binding signal (z-score) [18]: 0.231
glycan array binding signal (z-score) [19]: -0.186
glycan array binding signal (z-score) [20]: -0.566
glycan array binding signal (z-score) [21]: -0.347
glycan array binding signal (z-score) [22]: -0.415
glycan array binding signal (z-score) [23]: -0.453
glycan array binding signal (z-score) [24]: -0.364
glycan array binding signal (z-score) [25]: -0.614
glycan array binding signal (z-score) [26]: -0.431
glycan array binding signal (z-score) [27]: -0.138
glycan array binding signal (z-score) [28]: -0.092
glycan array binding signal (z-score) [29]: -0.591
glycan array binding signal (z-score) [30]: -0.211
glycan array binding signal (z-score) [31]: -0.027
glycan array binding signal (z-score) [32]: -0.563
glycan array binding signal (z-score) [33]: -0.413
glycan array binding signal (z-score) (Neu5Ac(a2-3)GalNAc): -0.606
glycan array binding signal (z-score) [34]: 0.055
glycan array binding signal (z-score) [35]: -0.477
glycan array binding signal (z-score) [36]: -0.46
glycan array binding signal (z-score) [37]: -0.512
glycan array binding signal (z-score) (Neu5Ac(a2-6)Gal): -0.619
glycan array binding signal (z-score) (Neu5Ac(a2-6)Gal(b1-4)Glc): 0.226
glycan array binding signal (z-score) [38]: -0.158
